# Reference: paper PMC4336329 (PLoS ONE, 2015)
# The campaign covered roughly 310,000 compounds. About 2,200 (0.71%) showed an effect of 50% or more. The effect is printed as a negative number. This is one part of the list.
# Molecular target: human ether-à-go-go-related gene (hERG) potassium channel (human, UniProt Q12809)
# Experiment: primary screen, population patch clamp on CHO cells stably expressing hERG
# Chain of human ether-à-go-go-related gene (hERG) potassium channel (Q12809 whole entry, looked up): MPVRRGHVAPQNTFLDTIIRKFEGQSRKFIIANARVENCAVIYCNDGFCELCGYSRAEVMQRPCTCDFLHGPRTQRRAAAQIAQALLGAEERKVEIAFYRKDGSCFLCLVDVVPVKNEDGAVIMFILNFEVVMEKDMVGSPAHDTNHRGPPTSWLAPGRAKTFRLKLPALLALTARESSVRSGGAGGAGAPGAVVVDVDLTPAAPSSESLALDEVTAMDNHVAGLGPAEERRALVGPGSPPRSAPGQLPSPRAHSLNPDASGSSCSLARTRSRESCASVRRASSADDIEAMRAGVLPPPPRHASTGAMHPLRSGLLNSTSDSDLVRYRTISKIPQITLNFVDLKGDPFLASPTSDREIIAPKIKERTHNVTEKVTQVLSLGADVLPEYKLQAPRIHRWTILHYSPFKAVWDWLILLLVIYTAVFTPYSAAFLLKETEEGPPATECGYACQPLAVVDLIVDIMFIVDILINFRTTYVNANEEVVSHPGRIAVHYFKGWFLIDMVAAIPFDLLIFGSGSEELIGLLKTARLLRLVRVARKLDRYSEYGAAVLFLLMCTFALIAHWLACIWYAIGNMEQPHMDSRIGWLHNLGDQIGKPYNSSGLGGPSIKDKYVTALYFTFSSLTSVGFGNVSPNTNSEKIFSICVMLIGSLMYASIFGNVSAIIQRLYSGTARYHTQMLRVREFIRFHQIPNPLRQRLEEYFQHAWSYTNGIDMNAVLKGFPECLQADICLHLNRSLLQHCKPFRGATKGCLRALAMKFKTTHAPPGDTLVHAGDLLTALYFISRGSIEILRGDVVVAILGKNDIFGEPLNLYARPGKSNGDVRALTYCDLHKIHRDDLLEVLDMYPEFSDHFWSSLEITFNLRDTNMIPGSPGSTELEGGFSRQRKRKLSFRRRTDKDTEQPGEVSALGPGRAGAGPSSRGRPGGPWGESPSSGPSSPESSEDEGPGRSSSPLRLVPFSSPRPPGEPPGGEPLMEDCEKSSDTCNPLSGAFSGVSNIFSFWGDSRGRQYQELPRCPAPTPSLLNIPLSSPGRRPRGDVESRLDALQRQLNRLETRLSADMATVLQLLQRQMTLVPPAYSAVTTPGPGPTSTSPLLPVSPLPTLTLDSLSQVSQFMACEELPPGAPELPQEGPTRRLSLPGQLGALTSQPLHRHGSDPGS
row,SMILES,"hERG current change (%, negative = inhibition) at 1uM [%]"
1,CC(C)(C)C(CCl)C(=O)NN=C(c1ccccc1)c1ccccc1 (centres unmarked),10.4
2,CC(=O)Nc1nc(SCC(=O)NCC2CCCO2)[nH]c(=O)c1NC(=O)c1cccs1 (centres unmarked),17.5
3,CCOC(=O)c1sc(NNC(=O)c2ccc(C)cc2)nc1C,10.5
4,CC1CCCCN1S(=O)(=O)c1ccc2c(c1)C(C)(C)C(=O)N2C (centres unmarked),10.9
5,COc1ccc(C(=O)C2CCCN(Cc3ccc(C)s3)C2)cc1OC (centres unmarked),-32.5
6,COc1cc(OC)cc(C(=O)NC(C(=O)OCn2nnc3ccccc3c2=O)C(C)C)c1 (centres unmarked),-0.167
7,O=C(Nc1cccc(Cl)c1)Nc1cccc(C(=O)O)c1,16
8,CN1CN=C(N[N+](=O)[O-])N(Cc2ccco2)C1,9.01
9,COC(=O)N/N=C/c1c[n+]([O-])c2ccccc2[n+]1[O-],14.4
10,Fc1ccc2nc(Nc3ccccc3)sc2c1,0.228
11,C=CCn1c(-c2ccc(OC)cc2)nc2ccccc21,-0.807
12,COc1ccc(C(CNC(=O)CCNC(=O)c2ccccc2OC)N2CCCC2)cc1 (centres unmarked),-2.95
13,C[C@H](NC(=O)Cn1cncn1)c1ccccc1,9.77
14,COc1ccc2c(c1)CCc1cn3nc(C)cc3nc1-2,13.8
15,COc1ccccc1N1CCN(C(=O)CCC(=O)Nc2nnc(C(C)C)s2)CC1,7.37
16,OCCNC(=S)Nc1ccc2nsnc2c1,23.9
17,Cc1ccc(Nc2cc(-n3nc(C)cc3C)ncn2)cc1,12.9
18,O=C(Nc1ccccc1)Nc1cccc(-c2cn3cccnc3n2)c1,38.3
19,CCOc1ccc(-c2nc(=S)[nH][nH]2)cc1,11
20,Cc1cccc(Nc2nc(N)c([N+](=O)[O-])c(N3CCN(C)CC3)n2)c1,-21.5
21,COc1ccc(OC)c(S(=O)(=O)NCc2ccc(N3CCN(C)CC3)cc2)c1,2.16
22,COC(=O)c1cn(C(=O)c2ccccc2)c2ccccc12,11.2
23,COc1ccc(-c2cc(-c3ccc(OC)cc3)c(C#N)c(SC)n2)cc1,4.9
24,CCOC(=O)c1c(-c2ncc(C(F)(F)F)cc2Cl)noc1C,14.2

row,SMILES,"hERG current change (%, negative = inhibition) at 1uM [%]"
1,Cc1nnc(NC(=O)CSc2nnc(Cc3ccccc3)n2-c2ccccc2)s1,20.9
2,Cc1cc(C)n(Cc2ccc(C(=O)Nc3ccc(Br)cc3C)o2)n1,1.34
3,COc1ccc(-c2[nH]ncc2CN(C)Cc2cccnc2)c(F)c1,8.1
4,COc1ccccc1NC(=O)Oc1ccc(NC(=O)c2ccco2)cc1,8.01
5,O=C(Nc1ccccc1C(=O)N1CCCCC1)C1CCCCC1,1.57
6,O=C(C1=CC=CN2CCS(=O)(=O)N=C12)N1CCN(c2cccc(Cl)c2)CC1,28.9
7,CCSc1nnc(NC(=O)C(C)C)s1,8.25
8,CC(=O)Nc1ccc(-c2nnn(CC(=O)c3ccccc3)n2)cc1Cl,8.22
9,N/C(CCS(=O)(=O)c1ccc(Cl)cc1)=N\OC(=O)c1ccccc1Cl,-9.9
10,COc1ccc(CN2[C@@H](CC(=O)O)c3ccc(C(F)(F)F)cc3S2(=O)=O)cc1,-13.2
11,COc1ccc(/C=C/C(=O)Nc2c(C)nn(C)c2C)cc1COc1ccc(Cl)cc1Br,16
12,O=C(O)C1CC=CCC1C(=O)Nc1cccc(F)c1 (centres unmarked),10.6
13,CCCCS(=O)(=O)N1CCCC(C(=O)Oc2ccccc2)C1 (centres unmarked),10.8
14,CCCCn1c(-c2csc3ccccc23)n[nH]c1=S,5.98
15,O=C(NCC1CCCO1)c1ccc2c(c1)OCO2 (centres unmarked),8.27
16,CCOc1ccc(S(=O)(=O)NC2CC2)cc1,13.4
17,Cc1cc(N2CCCCC2)n2ncc(-c3ccc(Cl)cc3)c2n1,10
18,Cc1ccccc1OCC(=O)Nc1cccc(N(C)S(C)(=O)=O)c1,9.82
19,CC(=O)Nc1ccc(NC(=O)Cc2ccc(-c3ccccc3)cc2)cc1,15.3
20,COc1ccc(CCn2c(C)cc(C(=O)CCl)c2C)cc1OC,15.3
21,CCCCCCC(=O)N/N=C/c1c(O)n(CCCC)c(=S)[nH]c1=O,8.83
22,O=C(N/N=C/c1sc(=O)[nH]c1-[n+]1ccc2ccccc2c1)c1ccccc1[O-],16.1
23,Cn1c(=O)c2c(ncn2CC(=O)N/N=C/c2ccc(Br)s2)n(C)c1=O,4.75
